Measured values taken from PubChem BioAssay AID1963576 (National Center for Advancing Translational Sciences (NCATS), 2024).
About 60 (0.1%) of roughly 46,000 compounds were called active. About 3% were inconclusive and are not listed. Calls come from the whole dose curve; as a rule, active = well fitted inhibition curve with a large enough effect; inconclusive = small, poorly fitted or top-dose-only effect; inactive = no such curve, though single readings can be large or run the other way. The list shows a part of the results.

Test: Primary qHTS assay for Inhibitors of ovarian cancer metastasis using an organotypic tumor microenvironment (TME) model.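 For activity change, negative = inhibition: plate controls were DMSO wells for no effect and tomatine positive control wells for full effect.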 Note: nearly all actives have a fitted effect of over 65% in size.
Conditions: SKOV3ip1-GFP adhesion/invasion on 3D omental model, fluorescence; series mostly up to 45.8 µM; activity change, negative = inhibition: at the top concentration
Outline: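 A 3D layer of primary human omental fibroblasts, mesothelial cells, fibronectin and collagen I, grown 48 hr, received SKOV3ip1-GFP cells in serum-free medium plus compounds at 0.36-46 umol/L. After 2 hr RT and 16 hr 37 C, fixed adherent GFP cells were counted; normalized to DMSO and tomatine.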

Activity change, negative = inhibition, inactive:
COc1cccc(CNC(=O)CCC(=O)N2Cc3cccc(OC)c3Oc3ncccc32)c1OC -2.84%, CCCNC(=O)CCc1c(C)nc2nc(-c3cc(OC)cc(OC)c3)nn2c1C -0.264%, COc1ccc(Br)cc1CNC(=O)C1CCCCN1S(=O)(=O)c1ccc(F)cc1 (configuration not stated) -25.7%, COc1ccc(NC(=O)c2ccc(COc3ccccc3OC)o2)cc1OC -1.27%, N=C(N)c1ccc2cc(OC(=O)c3ccc(N=C(N)N)cc3)ccc2c1 -1.92%, CC(=O)N1CCCc2cc(S(=O)(=O)N(C)CC(=O)Nc3ccc(Cl)cc3C)ccc21 0.745%, Cc1ccc(Nc2nc3ccccc3c3nncn23)cc1C -0.939%, Cc1c(NC(=O)c2ccccc2F)cccc1-c1nc2cccnc2s1 -6.35%, COc1ccc(N(C)C(=O)CCS(=O)(=O)c2cccc3nsnc23)cc1 45.5%, COc1cccc2c1C(=O)c1c(O)c3c(c(O)c1C2=O)C[C@@](O)(C(=O)CO)C[C@H]3O[C@H]1C[C@H](N)[C@H](O)[C@H](C)O1 5.1%, CCOc1ccc(CCNC(=O)CN(c2ccc(C)cc2)S(=O)(=O)N(C)C)cc1OCC 4%, COc1ccc(CNC(=O)C(C(C)C)N2Cc3ccccc3C2=O)cc1 (configuration not stated) 6.13%, Cc1ccc(C)c(NC(=O)c2cc(S(=O)(=O)NCCC3=CCCCC3)ccc2F)c1 -3.72%, COc1ccc2c(c1)CCc1c(C(=O)Nc3c(C)nn(Cc4ccc(C)cc4)c3C)noc1-2 9.9%, Cc1ccc(-n2c(=O)c3c(c4cc(C)ccc4n3C)n(CC(=O)Nc3cc(C)cc(C)c3)c2=O)cc1 6.41%, Cc1ccc(-c2onc(C)c2C)cc1S(=O)(=O)NC1CCCCC1 -8.98%, COC(=O)c1nnn(CC(=O)Nc2ccc(Br)c(C)c2)c1N -8.11%, CC1Cn2cc(C(=O)Nc3cccc(C(F)(F)F)c3)c(=O)c3c(Cl)ccc(c32)O1 (configuration not stated) -7.71%, CCNc1c(NC(=O)c2cc(OCC)c(OCC)c(OCC)c2)c(=O)oc2ccccc12 9.97%, CCOC(=O)c1c(-c2ccc(OC)cc2)oc2ccc(OCc3ccc(C(=O)OC)cc3)cc12 -6.57%, CCN1CCN(CCCNC(=O)c2ccc3c(c2)sc2nc(-c4ccc(OC)cc4)cn23)CC1 -9.9%, COc1cccc(CNC(=O)CCn2cccn2)c1 1.6%, CC(NC(=O)C(=O)Nc1c2c(nn1-c1ccc(F)cc1)CSC2)c1ccccc1 (configuration not stated) -1.88%, CCOC(=O)c1c(NC(=O)COc2ccc(F)cc2)sc2c1CCC(C)C2 (configuration not stated) -9.36%, CCC(=O)N1CCc2cc(Br)cc(S(=O)(=O)NCCc3ccccc3)c21 15.7%, Cc1cc(C)c(Cn2c(C(O)c3ccccc3)nc3ccccc32)c(C)c1 (configuration not stated) 4.27%, COc1cccc(CNC(=O)CCNS(=O)(=O)c2ccc3c(c2)oc(=O)n3C)c1 -2.77%, CCOC(=O)c1[nH]cnc1C(=O)Nc1ccc(F)cc1 3.82%, CCCCN(C)CCNC(=O)c1nn(-c2ccc(OC)cc2)c(=O)c2c1c1ccccc1n2C -1.95%, N#C/C(=C\c1ccc(-c2cc(Cl)ccc2Cl)o1)C(=O)Nc1ccccc1C(=O)O -29.8%, O=C(CSc1nc2ccccc2n1Cc1ccccc1Cl)NCc1ccccc1 -0.432%, CC(C)(C)C(=O)Nc1cccc(C(=O)OCc2cc(=O)n3nc(C4CCCCC4)sc3n2)c1 -3.73%, CCCS(=O)(=O)Nc1cc2c(cc1NCc1ccccc1)n(C)c(=O)n2C -25.7%, CCn1cc2nc(SCc3ccccc3F)n(Cc3ccc(C)cc3)c(=O)c2n1 -1.64%, CCN(Cc1ccccc1)C(=O)CN1C(=O)COc2ccc(S(=O)(=O)N3CCCCCC3)cc21 -3.51%, CCOCCCn1c(SCC(=O)Nc2ccc(OC)cc2OC)nc2ccccc2c1=O 5.68%, COc1cccc(C(=O)c2cn(CC(=O)Nc3cccc(C)c3C)c3nc(C)ccc3c2=O)c1 -4.78%, Cc1ccc(C)c(N2CCN(Cc3nnc(-c4ccccc4)o3)CC2)c1 -23.2%, COc1cc(-c2nnc(SCCOc3ccc(C)c(Cl)c3)o2)cc(OC)c1OC -17.4%, CCOC(=O)CSc1nc2ccc(NC(=O)c3ccccc3)cc2s1 -14.8%, Cc1ccc(CN2CCc3nc(SCC(=O)Nc4cccc(C)c4C)[nH]c(=O)c3C2)cc1 -6.32%, Cc1cccc(C)c1NC(=O)Cn1nc(C)c2sc3ccccc3c2c1=O 6.98%, Cc1ccccc1CN1CCN(CC(=O)NCc2ccccc2Cl)C1=O 0.0512%, O=C(NCCc1csc(-c2ccc(F)cc2)n1)c1ccc(Br)o1 -5.26%, CCSc1ncc(Cl)c(C(=O)Nc2c(C(=O)c3ccccc3)oc3ccccc23)n1 2.19%

outcome, inactive:
Cc1ccc(OCc2nc3ccccc3n2Cc2ccccc2Cl)cc1, CCn1cc(C(=O)NCc2ccccc2)c(=O)c2cc(S(=O)(=O)N3CCCCCC3)ccc21, O=C(Cn1ncc2c(=O)oc3ccccc3c21)NCc1ccc(Cl)cc1, COc1cccc2sc(N(Cc3cccnc3)C(=O)C3COc4ccccc4O3)nc12 (configuration not stated), O=c1c(S(=O)(=O)c2ccccc2)cn(Cc2ccc(F)cc2)c2cc(N3CCCCC3)c(F)cc12, CCCN(CCC)C(=O)C1CCN(c2ncnc3c2nc2n3CCCCC2)CC1, O=C(NCCCN1CCN(c2ccccc2F)CC1)c1nnc(Cc2ccc(Cl)cc2Cl)o1, CCOc1ccc(NC(=O)CSc2nc(-c3ccc(F)cc3)cc(C(F)(F)F)c2C#N)cc1, Cc1ccc2cccc(NC(=O)C(C)(C)Oc3ccc(Br)cc3)c2n1, CCOc1ccc(NC(=O)CCS(=O)(=O)c2ccc3c(c2)n(C)c(=O)c(=O)n3C)cc1, Cc1ccc(NC(=O)CCS(=O)(=O)c2cccc3nsnc23)c(C)c1, CCOC(=O)c1ccccc1NC(=O)Cn1c2ncccc2c(=O)n1-c1ccccc1, CCc1ccc(C(=O)Nc2ccc3nn(-c4ccc(C)c(Cl)c4)nc3c2)cc1, COc1ccc(-c2cn3c(n2)sc2cc(C(=O)Nc4cc(Cl)ccc4C)ccc23)cc1, COc1ccc2oc(-c3ccc(C)c(NC(=O)Cc4ccc(Cl)cc4)c3)nc2c1, Cc1nc2cc(-c3ccccc3)nn2c(C)c1CCC(=O)N1CCN(c2ccccc2)CC1, COc1cc(OC)cc(-c2nc3nc(C)c(CCC(=O)Nc4cc(F)ccc4F)c(C)n3n2)c1
